In paper PMC8730729:
These are yes or no findings as the source states them, for the method shown. Binding seen in cells or lysates may run through a third protein. Some entries that bind do so weakly or less than the wild type. Where a sequence is shown, tags or fusion partners need not be part of it.

The chains behind the UniProt entries cited, without tags or fusion partners.
UniProt Q86V87: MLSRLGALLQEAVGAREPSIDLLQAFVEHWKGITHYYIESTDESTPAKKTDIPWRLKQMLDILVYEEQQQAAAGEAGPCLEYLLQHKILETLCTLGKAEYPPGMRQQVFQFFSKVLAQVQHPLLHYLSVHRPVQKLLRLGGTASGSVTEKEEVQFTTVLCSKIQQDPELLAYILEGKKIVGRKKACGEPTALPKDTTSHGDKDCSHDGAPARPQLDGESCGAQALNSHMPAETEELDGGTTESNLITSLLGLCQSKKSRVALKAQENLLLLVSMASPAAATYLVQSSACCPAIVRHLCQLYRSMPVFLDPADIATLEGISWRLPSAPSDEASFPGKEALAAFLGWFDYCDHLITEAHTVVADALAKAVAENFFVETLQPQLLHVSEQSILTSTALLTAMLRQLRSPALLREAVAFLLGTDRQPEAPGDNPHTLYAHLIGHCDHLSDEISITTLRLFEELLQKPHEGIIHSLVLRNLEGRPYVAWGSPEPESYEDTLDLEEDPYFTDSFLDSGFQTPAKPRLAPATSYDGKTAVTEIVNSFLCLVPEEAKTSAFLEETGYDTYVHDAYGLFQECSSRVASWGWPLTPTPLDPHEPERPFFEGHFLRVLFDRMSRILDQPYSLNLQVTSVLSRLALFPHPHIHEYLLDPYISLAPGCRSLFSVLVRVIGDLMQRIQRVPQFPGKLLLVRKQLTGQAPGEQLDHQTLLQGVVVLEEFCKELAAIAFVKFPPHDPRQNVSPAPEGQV

Legend:
[1] = target: T1, HaloTag-Hook3-3xFLAG (human) (UniProt Q86VS8); assay: co-IP; FLAG affinity resin IP of HaloTag-Hook-3xFLAG baits from transiently transfected 293T cells; immunoblots with anti-FHIP1B, anti-FHIP2A, anti-FHIP2B; sfGFP-3xFLAG as control
T1 sequence: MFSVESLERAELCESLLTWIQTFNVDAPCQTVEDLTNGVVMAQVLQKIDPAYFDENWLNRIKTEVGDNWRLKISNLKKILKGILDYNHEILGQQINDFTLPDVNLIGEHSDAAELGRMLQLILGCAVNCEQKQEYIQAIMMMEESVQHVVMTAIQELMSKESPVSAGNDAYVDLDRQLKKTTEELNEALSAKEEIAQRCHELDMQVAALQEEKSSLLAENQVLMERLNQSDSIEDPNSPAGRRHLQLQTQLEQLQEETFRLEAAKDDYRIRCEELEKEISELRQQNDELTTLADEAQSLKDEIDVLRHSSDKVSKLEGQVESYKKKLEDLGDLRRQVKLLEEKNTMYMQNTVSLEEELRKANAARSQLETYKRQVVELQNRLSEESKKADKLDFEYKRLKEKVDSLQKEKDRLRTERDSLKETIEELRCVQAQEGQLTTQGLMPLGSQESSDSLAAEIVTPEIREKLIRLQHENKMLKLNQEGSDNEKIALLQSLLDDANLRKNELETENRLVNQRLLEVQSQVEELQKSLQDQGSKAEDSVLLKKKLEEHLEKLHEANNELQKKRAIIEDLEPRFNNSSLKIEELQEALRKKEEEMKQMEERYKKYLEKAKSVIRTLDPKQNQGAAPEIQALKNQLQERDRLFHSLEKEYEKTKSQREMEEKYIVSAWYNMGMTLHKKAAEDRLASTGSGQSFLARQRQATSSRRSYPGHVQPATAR

[2] = target: FHIP1A tagged at the carboxy terminus with BioID2 and 3xFLAG (human) (UniProt Q05DH4); assay: co-IP; FLAG affinity resin IP of FHIP-BioID2-3xFLAG baits from stable 293T cell lines; immunoblots with anti-Hook1, anti-Hook2, anti-Hook3; BioID2-3xFLAG as control

Row | binding [1] | binding [2] | Substance
1 | binds |  | FHIP2B, endogenous in 293T cells (from UniProt Q86V87 1-743)
2 |  | binds | Hook1, endogenous in 293T cells (from UniProt Q9UJC3 1-728)
